# Reference: patent EP1214397B1, “METHOD FOR THE SELECTIVE PROTECTION OF PROLIFERATING NORMAL CELLS AND THE SELECTIVE ERADICATION OF TUMOR CELLS HAVING AN INACTIVE P53 PATHWAY” (UNIVERSITA' DEGLI STUDI DI ROMA "LA SAPIENZA", priority 1999, dated 2001)
# Columns and labels:
# [1] = system: mixed culture of C3H10T1/2 and C3H10T1/2v-src/v-myc; assay: Focus-forming assay, mixed culture of normal and tumor cells (Examples 3, 9); conditions: monolayer reformed after the CD/2ClAd treatment
# [2] = system: C3H10T1/2 cells reversibly arrested in G0/G1 by growth factor deprivation; conditions: mouse, 48 h, 80 µM
# Procedure: The choice of carrying out the assays on cells arrested in the G0/G1 phase by growth factor deprivation rather than on cells treated with cytochalasin D or analogues thereof was made for ease of assaying.
# In a first assay 40µM 3FT for 48 h, in a second assay Ara C 40µM for 48 h, in a third assay 80µM 2ClAd for 48 h, in a fourth assay 100µM 6 thioguanine (6Thg) for 48 h, in a fifth assay 1µg/ml Doxorubicine (Doxo) for 48 h have been administered on the G0/G1 arrested C3H10T1/2 cells.
# The above concentrations are the minimum for killing proliferating cells calculated on the basis of cell cycle duration.
# After release from drug treatment, cells were washed 2x and left in low serum for other 12 h, to allow washing of residual drugs under non-proliferating conditions.
# After the 24 h period in low serum, proliferation medium (DMEM +10% FCS), supplemented with 20µM BrdU in order to mark the DNA-synthesizing cells, has been additioned to the cell culture. After a 24-h stimulation, the cells have been fixed and processed as reported in Grossi et al. 1991 (18). The percentage of DNA-synthesizing cells in the 24-h labeling period has been detected by immunofluorescence, as reported in Grossi et al. 1991 (18).
# The culture and assay conditions are those described in example 10, except for the pharmacological treatment, which in the present assay series consists of the following.
# normal cells = assay: Dose/response: concentration arresting normal cells in the intermitotic phase (CAP); type: cell-based; conditions: standard conditions
# Procedure: It generally results in cell cycle arrest at the binucleate stage in at least 40% of class A compounds treated proliferating normal cells, using the minimal drug concentration (i.e. sufficient to reversible induce its effects, on target cells, without causing significant damage, experimentally defined by dose/response curves), giving the above result without significant toxicity and an incubation time generally ranging from 12 to 48 hours depending on cell type.
# As to the CAP parameter, the corresponding value is a class A compound concentration causing the arrest of at least the 40% of normal cells in the intermitotic stage; such concentration is experimental deduced by dose/response experiments that define the appropriate value range for different cell types and compounds.
# For the above class A compounds, under standard conditions this value ranges within 1 nM to 40 µM concentrations.. […]
# In the light of these tests, the CAP and CACT values to be assigned to several class A compounds as the concentration range yielding the cytodieresis arrest, and, within said concentration range, the value of the minimum concentration required for attaining this effect, forming the preferred embodiment, has been determined. […]
SMILES,monolayer saturation density (number of cells per surface unit) lower with respect to the other cases [1],percentage of cells entering S phase (maintained proliferation potential) [2] [%],percentage of cells entering S phase compared to the untreated control [2] [%],percentage of residual adherent cells [2] [%],"CAP, minimum functional concentration for arrest in intermitotic phase of normal cells (normal cells) [nM]"
Nc1nc(Cl)nc2c1ncn2[C@H]1C[C@H](O)[C@@H](CO)O1 [2ClAd],about 1/3,3,6,97,
C/C1=C\[C@H](C)C[C@H](C)OC(=O)C[C@H](c2ccc(O)cc2)NC(=O)[C@@H](Cc2c(Br)[nH]c3ccccc23)N(C)C(=O)[C@H](C)NC(=O)[C@@H](C)C1 [Jasplakinolide],,,,,700
C/C1=C/C(=O)O[C@@H]2C[C@@H](CC[C@H](C)/C=C\CC1)O[C@@](O)([C@@H]1CSC(=O)N1)C2 [Latrunculin B],,,,,650
